Among the data in ChEMBL document CHEMBL5606460, “ASAP - DENV-2 NS2B-NS3 protease fluorescence single point” (2024) are inhibition values, retold here.

What is called inhibition is the relative decrease from the control value, in per cent.

This test deals with Genome polyprotein (dengue virus type 2) (UniProt P29990).
Where [1] appears, read: Thailand/16681/1984, Concentration 25.0 uM, Number of replicates 1.0.

SMILES strings stand for the structures. Screen size: about 2,000 compounds; about 110 (5.5%) showed an effect of 50% or more. The list shows a part of the results.

For `CNC(=O)c1cc(Cl)ccc1N(C)S(=O)(=O)c1ccc(Oc2ccccc2Cl)cc1`, the inhibition is -2.39% (Thailand/16681/1984, Concentration 49.5 uM, Number of replicates 2.0, Standard deviation 1.1912141654334696 %); -0.121% (Thailand/16681/1984, Concentration 99.01 uM, Number of replicates 2.0, Standard deviation 1.3706697565683075 %); 3.32% (Thailand/16681/1984, Concentration 198.0 uM, Number of replicates 2.0, Standard deviation 0.031456216092408736 %).

On to `NCc1cccc(NC(=O)[C@@H](NC(=O)OCc2ccccc2)c2ccc(Br)cc2)c1`, for which the inhibition by setting is: (Thailand/16681/1984, Concentration 49.5 uM, Number of replicates 2.0, Standard deviation 0.0939294781157427 %) -4.11%; (Thailand/16681/1984, Concentration 99.01 uM, Number of replicates 2.0, Standard deviation 0.02096957442071617 %) 99.8%; (Thailand/16681/1984, Concentration 198.0 uM, Number of replicates 2.0, Standard deviation 0.044447729264800756 %) 99.8%.

`Cn1cc(CNC(=O)c2ccccc2-c2ccccn2)cn1`: the inhibition by setting is: (Thailand/16681/1984, Concentration 49.5 uM, Number of replicates 2.0, Standard deviation 0.6305384329094122 %) -4.1%; (Thailand/16681/1984, Concentration 99.01 uM, Number of replicates 2.0, Standard deviation 1.5818396710958347 %) -3.63%; (Thailand/16681/1984, Concentration 198.0 uM, Number of replicates 2.0, Standard deviation 13.69923462321725 %) 5.85%.

Take `CCn1ccnc(N[C@@H](Cc2c[nH]c3ccccc23)C(N)=O)c1=O`: the inhibition runs as follows: (Thailand/16681/1984, Concentration 49.5 uM, Number of replicates 2.0, Standard deviation 0.3575077765079599 %) -4.37%; (Thailand/16681/1984, Concentration 99.01 uM, Number of replicates 2.0, Standard deviation 0.6094538818859584 %) -2.79%; (Thailand/16681/1984, Concentration 198.0 uM, Number of replicates 2.0, Standard deviation 0.016494021650768593 %) -0.419%.

Take `O=Cc1ccc(N2CCC(C(=O)N(CC3CC3)C[C@H]3CCCO3)CC2)cc1`: under setting [1], the inhibition turned out to be 15.1%.

On to `COc1ccccc1CN(CCCO)C(=O)C1CCN(c2ccc(C=O)cc2)CC1`, for which, under setting [1], the inhibition turned out to be 12.9%.

With `CNC(=O)C[C@@H](C)NS(=O)(=O)c1ccc(Oc2ccccc2Cl)cc1`, the inhibition (Thailand/16681/1984, Concentration 49.5 uM, Number of replicates 2.0, Standard deviation 1.3030195128486834 %) was 0.058%; the inhibition (Thailand/16681/1984, Concentration 99.01 uM, Number of replicates 2.0, Standard deviation 1.4693139392091605 %) was 1.01%; the inhibition (Thailand/16681/1984, Concentration 198.0 uM, Number of replicates 2.0, Standard deviation 0.5754244321045655 %) worked out at 1.94%.

In the case of `C[C@H](NC(=O)C1CCN(c2ccc(C=O)cc2)CC1)c1ccccc1-n1cccn1`, the inhibition under setting [1] amounted to 13.8%.

For the molecule `CN(Cc1ccccc1Br)C(=O)C1CCN(c2ccc(C=O)cc2)CC1`, under setting [1], the inhibition was determined as 14.2%.

With `Cc1cc(CO)c2cccc(Cc3ccccc3NC(=O)CNC3CC3)c2n1`, the inhibition by setting is: (Thailand/16681/1984, Concentration 49.95 uM, Number of replicates 2.0, Standard deviation 1.188088976616387 %) 6.18%; (Thailand/16681/1984, Concentration 99.9 uM, Number of replicates 2.0, Standard deviation 0.5753510122944595 %) 19.1%.

Turning to `Cn1cc(CNC(=O)c2ccccc2[C@@H]2CCCNC2)cn1`, the inhibition is -2.27% (Thailand/16681/1984, Concentration 49.5 uM, Number of replicates 2.0, Standard deviation 2.319552439999781 %); -1.97% (Thailand/16681/1984, Concentration 99.01 uM, Number of replicates 2.0, Standard deviation 2.7533538173819676 %); -0.355% (Thailand/16681/1984, Concentration 198.0 uM, Number of replicates 2.0, Standard deviation 0.9200576529447512 %).

For the molecule `Cc1cc(N)c2cc(Cl)cc(Cl)c2n1`, the inhibition reads like this: (Thailand/16681/1984, Concentration 49.95 uM, Number of replicates 2.0, Standard deviation 6.409809046838655 %) -7.04%; (Thailand/16681/1984, Concentration 99.9 uM, Number of replicates 2.0, Standard deviation 7.891337195429833 %) -3.92%.

Consider `COc1cccc(-c2cc(CNC(=O)C3CCN(c4ccc(C=O)cc4)CC3)on2)c1`, for which, under setting [1], the inhibition was 1.16%.

On to `Cc1cc(CO)c2cccc(Cc3ccccc3NC(=O)C(=O)c3ccco3)c2n1`, for which the inhibition worked out at 1.82% (Thailand/16681/1984, Concentration 49.95 uM, Number of replicates 2.0, Standard deviation 0.9554561588063234 %) and 6.45% (Thailand/16681/1984, Concentration 99.9 uM, Number of replicates 2.0, Standard deviation 0.5615035809225083 %).

Regarding `CCN(CC)C1CCN(C(=O)C2CCN(c3ccc(C=O)cc3)CC2)CC1`, under setting [1], the inhibition was 12.6%.

As for `Cc1c(C(=O)N2CCC(n3cc(CO)nn3)CC2)[nH]c2cc(Cl)cc(Cl)c12`, the inhibition is -0.277% (Thailand/16681/1984, Concentration 49.5 uM, Number of replicates 2.0, Standard deviation 0.5692523106313726 %); 1.31% (Thailand/16681/1984, Concentration 99.01 uM, Number of replicates 2.0, Standard deviation 1.4870917854757075 %); 1.93% (Thailand/16681/1984, Concentration 198.0 uM, Number of replicates 2.0, Standard deviation 1.8665932626763497 %).

`COc1cc(COc2cncnc2)nc(N2CCNCC2)n1`: the inhibition was -2.35% (Thailand/16681/1984, Concentration 49.5 uM, Number of replicates 2.0, Standard deviation 3.306986633712837 %); -0.505% (Thailand/16681/1984, Concentration 99.01 uM, Number of replicates 2.0, Standard deviation 2.7720530174645646 %); 0.524% (Thailand/16681/1984, Concentration 198.0 uM, Number of replicates 2.0, Standard deviation 2.4477408574870583 %).

With `O=Cc1ccc(N2CCC(C(=O)NCCOc3ccc(F)cc3)CC2)cc1`, the inhibition under setting [1] was 14.7%.

As for `Cc1cc(CO)c2cccc(Cc3cccc(C(=O)NC[C@H](C)O)c3)c2n1`, the inhibition is -6.96% (Thailand/16681/1984, Concentration 49.95 uM, Number of replicates 2.0, Standard deviation 1.3417230059830858 %) and -2.86% (Thailand/16681/1984, Concentration 99.9 uM, Number of replicates 2.0, Standard deviation 0.8544771145149516 %).

As to `O=Cc1ccc(N2CCC(C(=O)Nc3ccc(Oc4ccccc4Cl)cc3)CC2)cc1`, under setting [1], the inhibition came to 1.73%.

Take `O=Cc1ccc(N2CCC(C(=O)NCc3ccc(Oc4ccccc4)cc3)CC2)cc1`: under setting [1], the inhibition turned out to be 0.672%.

Take `Cn1ccc(CN2CC[C@H](c3c[nH]c4ccccc34)C2)cc1=O`: the inhibition (Thailand/16681/1984, Concentration 49.5 uM, Number of replicates 2.0, Standard deviation 0.21460734300344697 %) amounted to 0.103%; the inhibition (Thailand/16681/1984, Concentration 99.01 uM, Number of replicates 2.0, Standard deviation 0.11163920453838377 %) was determined as 1.03%; the inhibition (Thailand/16681/1984, Concentration 198.0 uM, Number of replicates 2.0, Standard deviation 0.8654745549171718 %) was 1.07%.
